According to PubChem BioAssay AID493208 (National Center for Advancing Translational Sciences (NCATS), 2011):
The whole screen tested about 44,000 compounds, of which about 340 (0.77%) were called active. Not shown: some 5% with an inconclusive outcome. Calls come from the whole dose curve; as a rule, active = well fitted inhibition curve with a large enough effect; inconclusive = small, poorly fitted or top-dose-only effect; inactive = flat fitted curve, though single readings scatter. Some of the results follow.

experiment: Acumen qHTS Assay for Inhibitors of the mTORC1 Signaling Pathway in MEF (Tsc2-/-, p53-/-) Cells: Sytravon; settings: phospho-rpS6 immunofluorescence/PI, 24 h; series mostly up to 38.3 µM; activity change, negative = inhibition: at the top concentration; note: nearly all actives have a fitted effect of over 50% in size;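 for activity change, negative = inhibition: plate controls were DMSO for no effect and rapamycin for full effect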
How it was run: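 Plate MEFs (Tsc2-/-, p53-/-, empty vector) in DMEM/10% FBS; after 24 h add compound, incubate 24 h at 37 degree Celsius; fix in PFA/TX-100, block, stain phospho-rpS6 and 10 uM PI; scan at 488 nm; report % positive cells.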
Potency is the fitted concentration of half-maximal effect.

Compound	activity change, negative = inhibition	Potency
Cc1ccc(C(=O)NCCC(C)C)cc1NC(=O)c1nsc2ccccc12	inactive: 1.46%	–
CCN(CC)c1ccc(NC(=O)Cn2c3ncccc3c(=O)n2-c2ccccc2)c(C)c1	inactive: -1.41%	–
CN(CCCNC(=O)Cn1ncc2c([nH]c3ccccc32)c1=O)Cc1ccccc1	inactive: 1.08%	–
Cc1ccccc1CNC(=O)C(=O)NCC(c1ccc2c(c1)OCO2)N1CCOCC1 (configuration not stated)	inactive: -13.2%	–
Cc1ccc2c(c1)-c1c(cnn1CC(=O)N1CCN(c3cc(C)ccc3C)CC1)CO2	inactive: -9.19%	–
Cc1ccccc1S(=O)(=O)Cc1ccc(C(=O)NCCc2ccccc2)o1	inactive: -20.2%	–
CC(C)N1CCc2c(sc(NC(=O)c3ccc(S(=O)(=O)N(C)C4CCCCC4)cc3)c2C(N)=O)C1	inactive: -0.0975%	–
O=C(NCc1ccc(Cl)cc1)c1ccc(CNS(=O)(=O)c2ccc(F)cc2)cc1	inactive: -5.05%	–
COCCc1nn2c(=O)cc(COC(=O)c3ccco3)nc2s1	inactive: -5.51%	–
CCC(Sc1nc2cc(OC)c(OC)cc2c(=O)n1Cc1ccc(OC)cc1)C(=O)NCCOC (configuration not stated)	inactive: -6.82%	–
CC(=O)c1ccc(NC(=O)c2cc(S(=O)(=O)N3CCOCC3)ccc2C)cc1	inactive: 1.52%	–
CC(C)(C)c1ccc(C(=O)Nc2ccc(OCc3cc(=O)n4ccsc4n3)cc2)cc1	inactive: -15%	–
COc1ccc(CCNC(=O)c2ccc(Cn3c(=O)c4ccccc4n(Cc4ccc(F)cc4Cl)c3=O)cc2)cc1OC	inactive: -4.31%	–
Cc1cc(N2CCN(c3ccccc3)CC2)n2cnnc2n1	inactive: -9.55%	–
Cc1nc(-c2ccc(F)cc2)sc1CCNC(=O)c1ccc(OC(C)C)cc1	inactive: -3%	–
CCN1CCN(C(=O)c2ccc3c(c2)N(Cc2ccccc2)C(=O)c2ccccc2S3(=O)=O)CC1	inactive: -6.7%	–
CCOc1ccc(-c2cn3c(n2)sc2cc(C(=O)N4CCCC(C)C4)ccc23)cc1 (configuration not stated)	inactive: 1.34%	–
Cc1nc(N2CCOCC2)c2c(C(=O)N(C)c3ccccc3)c(C)oc2n1	inactive: 4.6%	–
COc1ccccc1CNC(=O)C1CCN(C2=NS(=O)(=O)C(c3ccc(C)c(C)c3)=C2C)CC1	inactive: -10.8%	–
Cc1cc(C)cc(OCC(=O)N(Cc2ccc(Cl)cc2)C2CCS(=O)(=O)C2)c1 (configuration not stated)	inactive: 8.31%	–
COc1cc(CSc2ncc(CO)n2Cc2ccc(C)cc2)cc(OC)c1	inactive: -4.36%	–
COc1ccc(CNC(=O)CCCN2C(=O)CCn3nc(-c4cn(C)c5ccccc45)cc32)cc1	inactive: -0.331%	–
Cc1c(Cl)cccc1NC(=O)CSc1nc(=O)[nH]c2c1CCCC2	inactive: -10.3%	–
O=C(NCCC1=CCCCC1)C1CCN(C(=O)N2CCOc3ccccc32)CC1	inactive: 7.2%	–

Compound	activity change, negative = inhibition	Potency
COc1ccc(OC)c(NC(=O)Cn2ncc3c2-c2ccccc2OC3)c1	inactive: -7.92%	–
O=C(NCCc1ccc(Cl)cc1)C1(c2cccs2)CCOCC1	inactive: -1.28%	–
Cc1ccc(-n2c(=O)c3cccnc3n2CC(=O)Nc2ccc(C)cc2Cl)cc1	inactive: -3.22%	–
O=C1CN(C(=O)c2ccc(S(=O)(=O)N3CCCCC3)cc2)C(c2ccc(F)cc2)c2cc(Cl)ccc2N1 (configuration not stated)	inactive: -6.21%	–
Cc1cccc(-c2nc(CS(=O)CC(=O)NCc3ccc(Cl)cc3)c(C)o2)c1 (configuration not stated)	inactive: 1.59%	–
O=C(NCCc1ccccc1)c1ccc(CSc2nc3cccnc3n2Cc2ccccc2F)cc1	inactive: -1.77%	–
CCN(CC)CCn1c(=N)n(CCOc2ccccc2Cl)c2ccccc21	–	active: 5.85 µM
COc1ccc(C2=C(C)C(=O)N(Cc3ccc(C(=O)Nc4ccc(F)cc4C)cc3)S2(=O)=O)cc1	inactive: -1.56%	–
COc1cccc(-c2cn3c(n2)sc2cc(C(=O)NCc4ccccc4F)ccc23)c1	inactive: -1.68%	–
CCOC(=O)c1cc(-c2ccccc2)n(CC(=O)NCc2ccc(C)cc2)c1C	inactive: 1.17%	–
CCOC(=O)c1c(C)oc2nc(C)nc(NCC3CCN(Cc4ccccc4C)CC3)c12	inactive: -12.7%	–
Cc1ccc2nc(-c3cccc(NC(=O)c4cccc5c(Cl)cccc45)c3)oc2c1	inactive: 5.42%	–
O=C(NCC(c1cccnc1)N1CCOCC1)C(=O)Nc1ccc(Cl)cc1 (configuration not stated)	inactive: -0.0425%	–
COc1ccc(-c2[nH]ncc2C(=O)NCc2cccc(Cl)c2)cc1	inactive: 1.15%	–
COc1ccc(C)cc1NC(=O)Cn1cc(S(=O)(=O)Cc2ccccc2Cl)c2ccccc21	inactive: -2.63%	–
CCOc1cc2c(cc1OCC)C(c1c(F)cccc1Cl)CC(=O)N2 (configuration not stated)	inactive: -4.43%	–
CCc1ccccc1NC(=O)c1nc(-c2ccncc2)no1	inactive: 7.13%	–
O=C(NCCc1csc2nc(-c3ccc(F)cc3)nn12)c1ccco1	inactive: -11.9%	–
COc1cc(C2C(C(=O)Nc3ccccc3)=C(C)Nc3nc(SCc4ccccc4F)nn32)cc(OC)c1OC (configuration not stated)	inactive: -26.3%	–
CCOC(=O)c1c(S(=O)(=O)N2CCC(C(=O)N3CCN(c4cc(C)ccc4C)CC3)CC2)c(C)n(C)c1C	inactive: -0.313%	–
Cc1sc2c(c1C)c(=O)n(-c1ccc(Cl)cc1)c(=O)n2Cc1c(F)cccc1Cl	inactive: 2.43%	–
CCOc1ccccc1CNS(=O)(=O)c1csc(C(N)=O)c1	inactive: -1.81%	–
COC(=O)c1cc(NC(=O)CCc2c(C)nc3cc(-c4ccccc4)nn3c2C)cc(C(=O)OC)c1	inactive: -12.6%	–
